Assay in all cases: 6-mer SELEX enrichment z-score vs GST control; IMP3 is the RNA-binding protein IGF2BP3; higher = more enriched by binding
One test has as its system IMP3 KH1-4. As to conditions: construct: KH1-4 (164-579); SELEX round: R4. As for the experimental part:
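SELEX-seq with GST-tagged IMP3 KH1-4 (Pro164-Lys579) and an N40 RNA pool, round 4. 6-mer z-score of sequence-tag enrichment normalised to the corresponding GST SELEX round; RNA k-mers written as DNA (T for U).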

The next test has as its system IMP3 RRM1-2. As to conditions: construct: RRM1-2 (1-163); SELEX round: R2. The protocol: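 SELEX-seq with GST-tagged IMP3 RRM1-2 (Met1-Asn163) and an N40 RNA pool, round 2. 6-mer enrichment z-score normalised to GST SELEX. RNA written as DNA (T = U).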
The next test concerns the target IMP3 full-length (UniProt O00425). As to conditions: construct: FL IMP3 (1-579); SELEX round: R4. The protocol: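 SELEX-seq with GST-tagged full-length IMP3 and an N40 RNA pool, round 4. Each 6-mer is scored as an enrichment z-score of sequence tags containing it, normalised to the matching GST SELEX round. RNA written as DNA (T = U).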
Another test concerns IMP3 KH1-2. As to conditions: construct: KH1-2 (164-376); SELEX round: R4. As for the experimental part: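 SELEX-seq with GST-tagged IMP3 KH1-2 (Pro164-Phe376) and an N40 RNA pool, round 4 (stringent 300/600 mM KCl washes). 6-mer z-score of sequence-tag enrichment normalised to the corresponding GST SELEX round; RNA k-mers written as DNA (T for U).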
In the next test the test system is IMP3 KH3-4. As to conditions: construct: KH3-4 (377-579); SELEX round: R4. The protocol:
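SELEX-seq with GST-tagged IMP3 KH3-4 (Pro377-Lys579) and an N40 RNA pool, round 4. 6-mer z-score of sequence-tag enrichment normalised to the corresponding GST SELEX round; RNA k-mers written as DNA (T for U).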

Some of the results follow. Values come from read counts of a selection and are noisy. Scores sum up all selected molecules that hold the word; the word was not tested alone.

UniProt O00425, sequence (O00425 whole entry): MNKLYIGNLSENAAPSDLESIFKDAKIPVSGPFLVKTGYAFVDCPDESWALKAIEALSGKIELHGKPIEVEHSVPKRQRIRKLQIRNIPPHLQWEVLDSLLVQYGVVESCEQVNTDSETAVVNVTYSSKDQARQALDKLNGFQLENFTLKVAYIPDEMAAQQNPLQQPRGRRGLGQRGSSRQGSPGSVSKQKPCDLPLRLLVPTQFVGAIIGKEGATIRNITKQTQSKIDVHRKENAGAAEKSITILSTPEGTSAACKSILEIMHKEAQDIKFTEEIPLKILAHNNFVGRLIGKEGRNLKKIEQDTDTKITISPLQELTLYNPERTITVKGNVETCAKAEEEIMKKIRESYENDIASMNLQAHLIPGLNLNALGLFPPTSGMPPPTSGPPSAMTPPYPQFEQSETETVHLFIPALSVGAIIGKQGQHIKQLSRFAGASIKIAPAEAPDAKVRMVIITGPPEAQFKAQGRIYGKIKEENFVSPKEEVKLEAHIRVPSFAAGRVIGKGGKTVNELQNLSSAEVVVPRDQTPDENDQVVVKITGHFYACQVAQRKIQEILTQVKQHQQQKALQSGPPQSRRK
IMP3 KH1-2, sequence (chain, as listed by the source): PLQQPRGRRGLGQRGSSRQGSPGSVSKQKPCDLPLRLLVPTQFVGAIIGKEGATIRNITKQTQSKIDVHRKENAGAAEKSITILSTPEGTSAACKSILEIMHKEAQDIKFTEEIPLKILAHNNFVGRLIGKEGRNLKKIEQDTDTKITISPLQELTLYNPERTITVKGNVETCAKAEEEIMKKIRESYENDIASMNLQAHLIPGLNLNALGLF
IMP3 KH3-4, sequence (chain, as listed by the source): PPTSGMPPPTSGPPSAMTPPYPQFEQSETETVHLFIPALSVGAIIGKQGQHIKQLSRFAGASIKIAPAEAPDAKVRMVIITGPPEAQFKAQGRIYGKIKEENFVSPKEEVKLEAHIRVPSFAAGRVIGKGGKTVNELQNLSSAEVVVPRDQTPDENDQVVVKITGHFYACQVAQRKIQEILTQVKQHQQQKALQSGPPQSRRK
IMP3 RRM1-2, sequence (chain, as listed by the source): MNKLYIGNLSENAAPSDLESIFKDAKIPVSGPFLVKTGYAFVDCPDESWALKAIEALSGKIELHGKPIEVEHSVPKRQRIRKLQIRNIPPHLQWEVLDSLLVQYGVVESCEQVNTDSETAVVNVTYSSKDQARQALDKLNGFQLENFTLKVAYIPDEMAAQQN
IMP3 KH1-4, sequence (chain, as listed by the source): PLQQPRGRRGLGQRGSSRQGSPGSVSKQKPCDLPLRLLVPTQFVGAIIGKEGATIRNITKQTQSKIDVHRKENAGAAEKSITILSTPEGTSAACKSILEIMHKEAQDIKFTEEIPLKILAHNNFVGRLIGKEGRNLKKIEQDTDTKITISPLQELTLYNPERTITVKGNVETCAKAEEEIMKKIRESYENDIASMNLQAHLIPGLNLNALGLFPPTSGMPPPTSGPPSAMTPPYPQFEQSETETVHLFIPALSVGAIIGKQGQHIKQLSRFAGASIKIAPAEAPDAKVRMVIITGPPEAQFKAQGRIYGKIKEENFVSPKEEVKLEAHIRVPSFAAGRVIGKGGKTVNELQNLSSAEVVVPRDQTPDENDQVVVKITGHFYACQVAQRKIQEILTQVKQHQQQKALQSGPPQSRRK

In the case of ACTACA, the “6-mer SELEX enrichment z-score” value in the test on IMP3 KH1-4 amounted to 1.54; in the test on IMP3 RRM1-2, 1.23; with IMP3 full-length, 0.815; in the test with IMP3 KH1-2 it was 2.13; with IMP3 KH3-4, 1.3.

On to CATAAC, for which the “6-mer SELEX enrichment z-score” value in the test on IMP3 KH1-4 amounted to 1.6; in the test with IMP3 RRM1-2 it was 1.43; with IMP3 full-length it was 1.67; in the test with IMP3 KH1-2 it was 2.15; in the test on IMP3 KH3-4 it was 1.41.

Regarding TGCTGT, the “6-mer SELEX enrichment z-score” value was 0.497 in the test with IMP3 KH1-4; 0.21 with IMP3 RRM1-2; 0.119 in the test with IMP3 full-length; 0.381 with IMP3 KH1-2; 0.355 in the test on IMP3 KH3-4.

Take AGCGAT: the “6-mer SELEX enrichment z-score” value in the test on IMP3 KH1-4 was -1.3; in the test on IMP3 RRM1-2, -0.267; with IMP3 full-length, -0.655; with IMP3 KH1-2, -1.2; with IMP3 KH3-4, -1.04.

Consider CCTAGC, for which the “6-mer SELEX enrichment z-score” value is -1.13 with IMP3 KH1-4; -0.318 in the test with IMP3 RRM1-2; -0.788 in the test with IMP3 full-length; -1.06 with IMP3 KH1-2; -1.18 in the test with IMP3 KH3-4.

Turning to TAAGTG, the “6-mer SELEX enrichment z-score” value in the test with IMP3 KH1-4 was 0.238; in the test on IMP3 RRM1-2, -0.169; in the test with IMP3 full-length it was -0.26; in the test with IMP3 KH1-2 it was 0.088; in the test on IMP3 KH3-4, 0.421.

With GATAAA, the “6-mer SELEX enrichment z-score” value with IMP3 KH1-4 is 0.879; in the test with IMP3 RRM1-2, -1.65; in the test with IMP3 full-length it was -0.947; in the test with IMP3 KH1-2, 0.788; with IMP3 KH3-4, 1.89.

Take TTGAGT: the “6-mer SELEX enrichment z-score” value in the test on IMP3 KH1-4 is -0.557; with IMP3 RRM1-2, 0.167; with IMP3 full-length, -0.389; with IMP3 KH1-2, -0.541; in the test with IMP3 KH3-4, -0.349.

In the case of TTACTA, the “6-mer SELEX enrichment z-score” value came to 1.05 in the test on IMP3 KH1-4; 0.24 in the test with IMP3 RRM1-2; 0.012 with IMP3 full-length; 1.01 in the test on IMP3 KH1-2; 1.33 in the test on IMP3 KH3-4.

Take GGTGGA: the “6-mer SELEX enrichment z-score” value in the test on IMP3 KH1-4 is 0.43; with IMP3 RRM1-2 it was -0.1; in the test with IMP3 full-length, 0.228; with IMP3 KH1-2, 0.499; with IMP3 KH3-4 it was 0.468.

For CGATGA, the “6-mer SELEX enrichment z-score” value with IMP3 KH1-4 is 0.04; with IMP3 RRM1-2, -1.01; with IMP3 full-length, -0.602; with IMP3 KH1-2, -0.036; with IMP3 KH3-4 it was 0.243.

GCCGCA: the “6-mer SELEX enrichment z-score” value was determined as 0.786 in the test on IMP3 KH1-4; 0.333 with IMP3 RRM1-2; 1.27 with IMP3 full-length; 0.904 in the test on IMP3 KH1-2; 0.263 in the test with IMP3 KH3-4.

On to CTCGAC, for which the “6-mer SELEX enrichment z-score” value in the test with IMP3 KH1-4 is -1.85; in the test with IMP3 RRM1-2, 0.03; in the test with IMP3 full-length it was -0.703; in the test with IMP3 KH1-2, -1.63; in the test on IMP3 KH3-4, -1.67.

AGCATA: the “6-mer SELEX enrichment z-score” value with IMP3 KH1-4 was -0.216; in the test on IMP3 RRM1-2, 0.429; with IMP3 full-length, 0.319; with IMP3 KH1-2, -0.214; in the test with IMP3 KH3-4 it was -0.102.

On to AGCGTG, for which the “6-mer SELEX enrichment z-score” value in the test on IMP3 KH1-4 is -3.96; with IMP3 RRM1-2 it was -0.102; with IMP3 full-length, -2.71; in the test on IMP3 KH1-2, -3.74; in the test on IMP3 KH3-4 it was -3.49.

Consider AGTACG, for which the “6-mer SELEX enrichment z-score” value in the test on IMP3 KH1-4 is 0.101; in the test with IMP3 RRM1-2, -0.207; in the test with IMP3 full-length, 0.165; in the test on IMP3 KH1-2, -0.11; with IMP3 KH3-4, 0.027.

With TCAATA, the “6-mer SELEX enrichment z-score” value was found to be 1.06 with IMP3 KH1-4; 0.921 with IMP3 RRM1-2; 1.15 with IMP3 full-length; 1.23 in the test with IMP3 KH1-2; 1.14 in the test on IMP3 KH3-4.

TTTGCC: the “6-mer SELEX enrichment z-score” value in the test on IMP3 KH1-4 was -0.153; with IMP3 RRM1-2 it was -0.062; with IMP3 full-length, -0.46; in the test with IMP3 KH1-2 it was -0.193; with IMP3 KH3-4, -0.298.

Take TGCTGA: the “6-mer SELEX enrichment z-score” value was -0.235 with IMP3 KH1-4; -0.186 in the test on IMP3 RRM1-2; -0.468 with IMP3 full-length; -0.247 in the test on IMP3 KH1-2; -0.26 in the test with IMP3 KH3-4.

For the sequence GGAACA, the “6-mer SELEX enrichment z-score” value with IMP3 KH1-4 amounted to 0.898; with IMP3 RRM1-2, 0.946; with IMP3 full-length, 0.779; with IMP3 KH1-2 it was 0.501; in the test on IMP3 KH3-4, 0.594.

On to GATGCG, for which the “6-mer SELEX enrichment z-score” value in the test with IMP3 KH1-4 is -0.826; in the test on IMP3 RRM1-2 it was -0.217; in the test with IMP3 full-length, -0.546; in the test on IMP3 KH1-2, -0.734; with IMP3 KH3-4 it was -0.494.

TTCCGC: the “6-mer SELEX enrichment z-score” value in the test with IMP3 KH1-4 was 0.685; in the test with IMP3 RRM1-2, 0.092; in the test with IMP3 full-length, 0.305; in the test with IMP3 KH1-2, 0.942; in the test with IMP3 KH3-4 it was 0.079.

As for CGAATA, the “6-mer SELEX enrichment z-score” value in the test on IMP3 KH1-4 was 0.211; in the test on IMP3 RRM1-2, -1.16; with IMP3 full-length, -0.588; in the test on IMP3 KH1-2 it was 0.136; in the test with IMP3 KH3-4, 0.567.

For the sequence GCTACG, the “6-mer SELEX enrichment z-score” value in the test with IMP3 KH1-4 is -0.284; with IMP3 RRM1-2, 0.007; with IMP3 full-length, -0.063; with IMP3 KH1-2, -0.24; in the test on IMP3 KH3-4 it was -0.236.

For TCTTCA, the “6-mer SELEX enrichment z-score” value with IMP3 KH1-4 turned out to be 0.594; in the test on IMP3 RRM1-2 it was 0.883; with IMP3 full-length, 0.63; in the test on IMP3 KH1-2, 0.694; in the test on IMP3 KH3-4 it was 0.395.

For GAATGT, the “6-mer SELEX enrichment z-score” value in the test with IMP3 KH1-4 is 0.239; in the test on IMP3 RRM1-2 it was -0.556; in the test with IMP3 full-length it was -0.521; in the test on IMP3 KH1-2, -0.084; in the test on IMP3 KH3-4 it was 0.378.

Consider AGCGGG, for which the “6-mer SELEX enrichment z-score” value is -0.429 in the test on IMP3 KH1-4; -0.319 in the test on IMP3 RRM1-2; 0.375 in the test with IMP3 full-length; -0.187 in the test with IMP3 KH1-2; -0.046 with IMP3 KH3-4.

In the case of ACGTGT, the “6-mer SELEX enrichment z-score” value with IMP3 KH1-4 was -0.211; in the test with IMP3 RRM1-2, -0.266; in the test with IMP3 full-length, -0.234; in the test with IMP3 KH1-2, -0.348; in the test with IMP3 KH3-4 it was -0.212.

Turning to GATACA, the “6-mer SELEX enrichment z-score” value in the test on IMP3 KH1-4 amounted to 1.2; in the test with IMP3 RRM1-2, 0.12; in the test with IMP3 full-length it was 0.867; with IMP3 KH1-2, 1.18; in the test on IMP3 KH3-4 it was 1.17.

Take TTTAAA: the “6-mer SELEX enrichment z-score” value in the test on IMP3 KH1-4 was 0.903; in the test with IMP3 RRM1-2, -0.477; with IMP3 full-length, -0.411; in the test with IMP3 KH1-2 it was 0.832; in the test on IMP3 KH3-4, 1.94.

These data come from the supplement of paper PMC6531468.
